# Data reported in PMC6451091.
# The other results are listed elsewhere or left out. For part of these data: At the low end of the ranking the order means little. For part of these data: Measured with an extract: partners may take part in the binding.
# Key:
# Details in all cases: 20 mM HEPES pH 7.9, 100 mM NaCl, 1 mM DTT, 0.2 mg/mL BSA, 0.02% Triton X-100, 2% milk, 0.4 mg/mL salmon testes DNA; 1 h; temperature not stated; high values mean tight binding; double strand, one strand shown; sequences stand for … in GCCTAGCAC…GTGCTAGGTCTTGATTCGCTTGACGCTGCTG
# PU.1 (IVT) = PU.1 (IVT) (UniProt P17947); assay: protein-binding microarray (PBM)
# [1] = target: PU.1 (endogenous, THP-1 nuclear extract) (UniProt P17947); assay: nuclear extract protein-binding microarray (nextPBM)
# [2] = target: T1, FLI1 (endogenous, THP-1 nuclear extract) (UniProt Q01543); assay: as above
# T1 sequence: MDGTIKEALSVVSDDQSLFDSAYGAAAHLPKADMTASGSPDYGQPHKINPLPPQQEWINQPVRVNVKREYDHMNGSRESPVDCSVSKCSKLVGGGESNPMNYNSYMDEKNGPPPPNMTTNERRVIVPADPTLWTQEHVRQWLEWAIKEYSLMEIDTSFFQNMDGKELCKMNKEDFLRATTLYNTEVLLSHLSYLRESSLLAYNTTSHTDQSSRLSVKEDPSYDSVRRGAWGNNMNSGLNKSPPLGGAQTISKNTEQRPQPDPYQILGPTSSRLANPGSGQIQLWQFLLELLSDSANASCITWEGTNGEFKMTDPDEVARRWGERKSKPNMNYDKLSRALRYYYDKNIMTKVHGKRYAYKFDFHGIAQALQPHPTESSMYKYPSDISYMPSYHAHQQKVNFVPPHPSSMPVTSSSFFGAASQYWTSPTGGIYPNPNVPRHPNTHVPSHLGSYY
sequence,measurement,setting,value
AGTAAGAGGAACTGTGCTAA,binding signal,PU.1 (IVT),3.63 z-score
same,binding signal,[1],3.41 z-score
same,binding signal,[2],1.31 z-score
TGAAAGAGTAAGTGCAACCA,binding signal,PU.1 (IVT),0.422 z-score
same,binding signal,[1],0.187 z-score
same,binding signal,[2],0.121 z-score
TAGGAGGGGAACTGAATCCA,binding signal,PU.1 (IVT),1.64 z-score
same,binding signal,[1],1.79 z-score
same,binding signal,[2],0.244 z-score
GTTAAGAGGAAGTCCTCTGT,binding signal,PU.1 (IVT),4.91 z-score
same,binding signal,[1],5.7 z-score
same,binding signal,[2],2.82 z-score
CAAAACAGGAAGTGATTCAT,binding signal,PU.1 (IVT),7.82 z-score
same,binding signal,[1],7.36 z-score
same,binding signal,[2],5.67 z-score
AGAAAGAGGAACTGGTTTGG,binding signal,PU.1 (IVT),6.71 z-score
same,binding signal,[1],6.85 z-score
same,binding signal,[2],3.03 z-score
GAAAAGAGGAAGTCAGACTA,binding signal,PU.1 (IVT),8.15 z-score
same,binding signal,[1],7.56 z-score
same,binding signal,[2],3.79 z-score
CAGAGGAGGAAGTGGGTAGA,binding signal,PU.1 (IVT),4.73 z-score
same,binding signal,[1],4.72 z-score
same,binding signal,[2],2.82 z-score
AAAATGAGGAAGTGCTTCTA,binding signal,PU.1 (IVT),8.37 z-score
same,binding signal,[1],7.64 z-score
same,binding signal,[2],3.92 z-score
AAAAAAGGGAAGTGACATAC,binding signal,PU.1 (IVT),7.76 z-score
same,binding signal,[1],7.33 z-score
same,binding signal,[2],3.36 z-score
CAGTGAGGGAAGTGGCTGAA,binding signal,PU.1 (IVT),2.16 z-score
same,binding signal,[1],2.28 z-score
same,binding signal,[2],1.04 z-score
GGAATAGGGAAGTGGCCTGT,binding signal,PU.1 (IVT),6.32 z-score
same,binding signal,[1],6.74 z-score
same,binding signal,[2],2.51 z-score
AAAAAAAGGAACTGGATAGA,binding signal,PU.1 (IVT),4.08 z-score
same,binding signal,[1],4 z-score
same,binding signal,[2],1.42 z-score
TAAAAGAGGAACAGCAAATC,binding signal,PU.1 (IVT),3.9 z-score
same,binding signal,[1],4.73 z-score
same,binding signal,[2],1.16 z-score
CAGATGAGGAAGTGAAGAAC,binding signal,PU.1 (IVT),5.68 z-score
same,binding signal,[1],6.15 z-score
same,binding signal,[2],2.6 z-score
GCAGAGAGGAAGTGTGAATG,binding signal,PU.1 (IVT),3.72 z-score
same,binding signal,[1],3.89 z-score
same,binding signal,[2],2.88 z-score
AAAAAGAGGAAATGGAGAAT,binding signal,PU.1 (IVT),5.91 z-score
same,binding signal,[1],6.19 z-score
same,binding signal,[2],2.94 z-score
TATATCAGGAAGTGGTTAAA,binding signal,PU.1 (IVT),3.41 z-score
same,binding signal,[1],3.49 z-score
same,binding signal,[2],3.02 z-score
TGGAGAGGGAAGTGGGGCTT,binding signal,PU.1 (IVT),2.84 z-score
same,binding signal,[1],2.94 z-score
same,binding signal,[2],1.35 z-score
AAAATGAGGAAGTGACTTTG,binding signal,PU.1 (IVT),8.87 z-score
same,binding signal,[1],7.47 z-score
same,binding signal,[2],4.62 z-score
CAGGGAAGGAAGTGGTTTGA,binding signal,PU.1 (IVT),2.11 z-score
same,binding signal,[1],2.29 z-score
same,binding signal,[2],2.2 z-score
TAAAGGAGGAAGTTGCCCTG,binding signal,PU.1 (IVT),6.11 z-score
same,binding signal,[1],6.43 z-score
same,binding signal,[2],2.93 z-score
TGGGAGGGGAAGTGTGAGGC,binding signal,PU.1 (IVT),3.28 z-score
same,binding signal,[1],2.97 z-score
same,binding signal,[2],1.77 z-score
GGAATGGGGAAGTGGCATTT,binding signal,PU.1 (IVT),6.73 z-score
same,binding signal,[1],6.65 z-score
same,binding signal,[2],2.68 z-score
AAAAATAGGAACTGGCTAGA,binding signal,PU.1 (IVT),3.72 z-score
same,binding signal,[1],3.19 z-score
same,binding signal,[2],0.938 z-score
CAGAAGGGGAAGTCAGAAGT,binding signal,PU.1 (IVT),5.1 z-score
same,binding signal,[1],5.46 z-score
same,binding signal,[2],2.33 z-score
CAGATGAGGAACTGATGCGG,binding signal,PU.1 (IVT),3.9 z-score
same,binding signal,[1],4.07 z-score
same,binding signal,[2],1.2 z-score
TAAAAGAGGAACAGAGAGGA,binding signal,PU.1 (IVT),4.09 z-score
same,binding signal,[1],4.73 z-score
same,binding signal,[2],1.23 z-score
GGAAAGAGGAAGTGGCAAGA,binding signal,PU.1 (IVT),7.75 z-score
same,binding signal,[1],7.09 z-score
same,binding signal,[2],4.11 z-score
TTGTGGGGGAAGTGGCTTTG,binding signal,PU.1 (IVT),2.85 z-score
same,binding signal,[1],2.91 z-score
same,binding signal,[2],1.51 z-score
AGAAACAGGAAGAGAGAGCA,binding signal,PU.1 (IVT),2.85 z-score
same,binding signal,[1],3.58 z-score
same,binding signal,[2],2.52 z-score
TAATGGAGGAAGTGGAGATA,binding signal,PU.1 (IVT),3.22 z-score
same,binding signal,[1],3.38 z-score
same,binding signal,[2],2.16 z-score
CGAAAGGGGAAGTGCTAAGC,binding signal,PU.1 (IVT),6.82 z-score
same,binding signal,[1],7.02 z-score
same,binding signal,[2],3.01 z-score
TGATTGGGGAAGTGGTAAGT,binding signal,PU.1 (IVT),5.18 z-score
same,binding signal,[1],5.29 z-score
same,binding signal,[2],1.99 z-score
TCAAAGAGGAACTGATACCT,binding signal,PU.1 (IVT),4.99 z-score
same,binding signal,[1],5.31 z-score
same,binding signal,[2],2 z-score
ATTTTGAGGAAGTGTAAAGT,binding signal,PU.1 (IVT),6.34 z-score
same,binding signal,[1],6.67 z-score
same,binding signal,[2],2.5 z-score
ATAAACGGGAAGTGAGCAAT,binding signal,PU.1 (IVT),5.51 z-score
same,binding signal,[1],6.39 z-score
same,binding signal,[2],3.06 z-score
AAAAAAAGGAAGTCCTTGTG,binding signal,PU.1 (IVT),6.48 z-score
same,binding signal,[1],6.43 z-score
same,binding signal,[2],2.88 z-score
GAAAACAGGAAGTCAAATTT,binding signal,PU.1 (IVT),7.67 z-score
same,binding signal,[1],7.29 z-score
same,binding signal,[2],4.92 z-score
AAAAACAGGAACTGGCCAGG,binding signal,PU.1 (IVT),5.89 z-score
same,binding signal,[1],6.56 z-score
same,binding signal,[2],2.54 z-score
AGTTTAAGGAAGTGAATTTC,binding signal,PU.1 (IVT),5.94 z-score
same,binding signal,[1],6.17 z-score
same,binding signal,[2],2.9 z-score
GCAATGGGGAAGTGGTTTGC,binding signal,PU.1 (IVT),5.83 z-score
same,binding signal,[1],6.32 z-score
same,binding signal,[2],2.49 z-score
AGAAACAGGAAGTCCCAAAC,binding signal,PU.1 (IVT),7.1 z-score
same,binding signal,[1],6.99 z-score
same,binding signal,[2],4.81 z-score
TGAAAGAGGAAGTGGAGATT,binding signal,PU.1 (IVT),7.49 z-score
same,binding signal,[1],7.24 z-score
same,binding signal,[2],3.85 z-score
CCCAGAGGGAAGTACTGTGA,binding signal,PU.1 (IVT),2.98 z-score
same,binding signal,[1],2.96 z-score
same,binding signal,[2],1.25 z-score
AGAGAGAGGAAGTACTGTGA,binding signal,PU.1 (IVT),4.81 z-score
same,binding signal,[1],5.07 z-score
same,binding signal,[2],2.58 z-score
ACAATAAGGAAGTGTCTGCC,binding signal,PU.1 (IVT),4.42 z-score
same,binding signal,[1],4.26 z-score
same,binding signal,[2],2 z-score
CGGAAGAGGAAGTAGCTGAA,binding signal,PU.1 (IVT),6.49 z-score
same,binding signal,[1],6.76 z-score
same,binding signal,[2],5.23 z-score
AAGAAGCGGAAGTGAAAGAC,binding signal,PU.1 (IVT),6.8 z-score
same,binding signal,[1],6.92 z-score
same,binding signal,[2],4.94 z-score
